# Reference: the supplement of paper PMC11417369
# Some of the results follow.
# Tested on: PfSIP2 AP2 domain 1 (GST-tagged)
# Assay: gcPBM binding intensity (ln(normalized median fluorescence intensity)); higher = stronger DNA binding
# Outline: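 The binding buffer was 1× PBS containing 1% milk, 0.2 mg/ml BSA, 0.5% salmon testes DNA and 0.03% Triton X-100. In it, GST-tagged P. falciparum DNA-binding domains expressed in E. coli were applied for 1 h to an Agilent 4 × 180k array of primer-extended double-stranded 36-bp intergenic genomic probes plus negative controls. Binding intensity, read with Alexa488 anti-GST antibody and a 488 nm scan, is the highest Masliner-normalised natural-log median intensity across replicate spots of either probe orientation.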
row,Sequence,gcPBM binding intensity (ln)
1,TTATTAATATTGCATGCACACTATATAATAATTGAA [CACACA_site8258],8.31
2,TATAAATAGGCATATACACACTTTTAATATTCATAA [CACACA_site6123],6.84
3,CAAACACCCAAACACACACACACATACATACATACA [CACACA_site8044],8.46
4,ATAGTAATGCATAAATATATATTATATATATATATA [XGTACX_negctrl_site576],9.1
5,CTATTGTTAAATATAATACACACGTTTTTAAAAATA [CACACA_site2183],6.97
6,GTATATATTTTGTATTCATTTGTCACATATAATAGA [CACACA_negctrl_site506],7.17
7,ATTATATATACATAATGTACATATATATATTACCTT [XGTACX_site7624],7.03
8,TATAAAATGACTATATATAATATTAAAAAAAAAAAA [TGCATGCA_negctrl_site387],6.88
9,AAAAAAAAAAAAAATTCACACACATATAAAAAATTA [CACACA_site8140],7.1
10,TAAATTAAGAATTTTACACACATTAAATAAAAAAAA [CACACA_site3638],6.73
11,AAATTAGGAAATTGCACACAAAAAAAAACATATTAT [CACACA_site4074],7.02
12,TTTTTTTATTTTTTTATAAATGTATTTCTATTATTT [CACACA_negctrl_site1562],6.6
13,TATAAACATATAAAAAGTACATACCAATTAATATTA [XGTACX_site967],7.07
14,GGATAAAATGCTACGAGTACATAAGCATTTTTCCCT [XGTACX_site7796],7.14
15,TCTTTTAAAAATATAAAAAGGAATATATAAAAATGT [CACACA_negctrl_site332],7.3
16,AATATATTCATCATATCAATATTGTCAAGCAAACGA [TGCATGCA_negctrl_site37],6.95
17,TATTCTGTGTATAAAAGTACAAATATTTAAATGTAT [XGTACX_site8234],7.2
18,GAATTTATTTTATTTTCACACACAAAAATAAATATC [CACACA_site8762],7.11
19,AATAAATAGATATATACACACATATATGTGTACATA [CACACA_site7476],7.06
20,TTATCCATTTTAATCACACATACTTTACTTTGGAAC [CACACA_site5584],6.84
21,TTCTTTAATAAAATAATCTCAAAGAAAATTTTTTCT [GTGCAC_negctrl_site589],6.73
22,TACAATTTAAAACACACACACAATAATACATATATA [CACACA_site1251],7.2
23,TATATTATTTATATTTGTACACAGCGATATGAAATA [XGTACX_site987],7.2

row,Sequence,gcPBM binding intensity (ln)
1,ATATTATTATAAACTTCACACATTTTATGGGTTTTT [CACACA_site4631],6.8
2,CATAAGCACAAGCACAAGCACACATTTATATATATA [CACACA_site882],8.14
3,CGCATATTTTATGTTTGTACTCATATGAATATCATA [XGTACX_site4717],6.97
4,TTGTATATATTAAATTGTACTTATTTTTTGTATATA [XGTACX_site3251],7.12
5,ATAAAAATAAAAAGATGTACGTATTTTTTTTTTTTT [XGTACX_site5329],7.13
6,GAAATAGAGAAACACACACACATATATTTATGTATT [CACACA_site3967],6.93
7,TATAAATAAATGCGTACACACTAATAAAAAAAAAAA [CACACA_site4630],7.31
8,CATTATTATGATAGTTGTACAATTTTTATAAAAAAT [XGTACX_site4411],7.26
9,TTTTTTTTTTTTGAGTGTACTAAAATATTACCTTTT [XGTACX_site646],6.83
10,TGGAAAAATAGGCACACACACATATATACCTATATA [CACACA_site4843],7
11,AATATTATAAATGATACACACTTAAAATACACCCAC [CACACA_site5498],7.45
12,TGAATATTTACTTTAGCACACAATTTGTATTTGATT [CACACA_site960],6.89
13,AATATATTTTAATACACACACACATATATATATATA [CACACA_site5969],9.65
14,TTTTTTTTAAATATCACACACATATAACATATTCTA [CACACA_site7687],6.97
15,ATATGTATATAAATGTGTACTTATAAATATATATAT [XGTACX_site3250],8.47
16,TAATATTAATCCTAGTGTACATTAATTTATATGTAT [XGTACX_site3583],7.08
17,ATTATATATATATAAACACACAAATATTTTTATATA [CACACA_site5005],7.05
18,ACCTATATAAGTTATACACACAAATATAGATATATA [CACACA_site7356],7.06
19,ATTTAAGATTTAATCACACACATATAGATTATAGAC [CACACA_site7383],7.24
20,ATGAAGAAGTGTAAATGTACATTTTATGTAGAACAA [XGTACX_site6925],6.87
21,TTTACAGAAAGTTACATACACACTAATATTTACACC [CACACA_site1009],7.29
22,TTTATATGTATTAAGTGTACACATATAATGTGTTTG [XGTACX_site6629],7.29
23,TATAAGAGGATATATACACACAAAAATATGTACAGT [CACACA_site6885],7.07

row,Sequence,gcPBM binding intensity (ln)
1,TTATTTTTTTTTTATTGTACTAGGAAAATTTCGATA [XGTACX_site702],6.83
2,CTTCCTTAGGAATGTACACACATATATAATATGTTG [CACACA_site461],6.95
3,TACAGACAGAAATGCACACACATATTTATATTTATA [CACACA_site7139],7.23
4,AATAAAAAAGAATATACACACATAAATATAAAATAT [CACACA_site683],6.85
5,AATTAAAAAGAAAAAAGTACATATTTTTTTAAAAAA [XGTACX_site7384],6.99
6,ATATATATATATATGTGTACTAATAAGGTTAAATAA [XGTACX_site1535],9.29
7,AAATATATATTTCTTAGTACATATGTATTTTTTTTT [XGTACX_site938],6.85
8,TTTGACAAATTATTGTGTACACAATATTATTATATA [XGTACX_site8320],7.14
9,ACAAAATGTAGATATTGTACATATTGTAGATATTGT [XGTACX_site7619],6.98
10,ATTTACATTATATTGAATATGCCATATTATATTATT [CACACA_negctrl_site811],6.72
11,TCTAACATATTTTTAATACACACTTAAAAAAGTACT [CACACA_site1366],7.01
12,AATGCTTTTCATCAAGTGCAATATGTTAATACAAAC [GTGCAC_site9619],7.51
13,TATAAAAGTAGACACACACACATATAAATATAAATA [CACACA_site6567],7.05
14,TCTATATCAACCAGTTGTACTGAATTTACTATATTT [XGTACX_site4205],6.84
15,AAAAAAAAAAATGGTTGTACTTTTTTTATTTGGTGC [XGTACX_site4498],7.37
16,GTAGACTGAAACCACACACACATATATAAATATATT [CACACA_site6433],7.13
17,ATAGACTTTTGTTTTGTTTTATTTTATTGTATTGTA [CACACA_negctrl_site618],6.75
18,ATATTATATTGGATGTTGCACTTAACAAAAGGATAT [GTGCAC_site9478],8.76
19,TGTATGTATAATTGAGTGCACAGAAAAAAAAAAGAA,10.5
20,AGAAAAAAAAAAAAAAAACACACGGTACATTCAAAG [CACACA_site2],6.79
21,TAATTTTCATATTTCTGTACATATATTATAAATATA [XGTACX_site3480],6.93
22,TAATATATATATATTACACACACGTATTATTAAATA [CACACA_site432],7.16
23,TTTTTTTTTTGATGAGCACACATGTTTTTTCTTAGA [CACACA_site3171],6.87

row,Sequence,gcPBM binding intensity (ln)
1,AAAAAATATTTATGTTCACACATTTTATATATGATA [CACACA_site4821],7.02
2,AAATATTTTTAAAGAAGTACTTTTTAAAAATAATCT [XGTACX_site4897],6.9
3,GCGTATACTTGTAACGGTACACAGGAAATTATAGAA [XGTACX_site507],7.06
4,TCTTTGTTTTTTTTTTTTAAACAAAATCATCAAAGG [XGTACX_negctrl_site192],6.9
5,AAGATACACCTTTTTAGTACTTACATTTTTTTTATT [XGTACX_site1373],6.99
6,AATAAATATATATACACACCCATATATATATATATA [CACACA_site2595],9.64
7,TAATGTTGTTTCTGAGGTACACAATTTTTTTTATTT [XGTACX_site8035],6.83
8,TTAATGAAATATTATACACACAAAAAAATAATTTTA [CACACA_site4231],6.83
9,TACACTTTTTTTTGTACACACTAAAAAGATTAACAA [CACACA_site6037],6.95
10,TATATATATGGACACACACACACCAAAGCGTAGCGC [CACACA_site4209],7.41
11,ACCATACAGAATAATGCATGTTCCTTTTTATGAATA [TGCATGCA_site995],6.99
12,TATACTTGTAAATGCACACATAAGATGCGACTAATG [CACACA_site2118],7.37
13,AAAAAAATAAAGGATATACACACTAATTATATATAT [CACACA_site2812],7.61
14,CCAACATAGAGGGGCACACACATATATACCTAAAAA [CACACA_site5088],7.58
15,AGATTATAAAATTCTACACACATATATACCTATATA [CACACA_site5848],6.89
16,CTGTGTTTTGGTTGTACACACGCTACATTCTATATT [CACACA_site2698],7.95
17,AAAATAATTGTTTACACACCCATTTGTAATTTTACC [CACACA_site3614],6.98
18,AATTATATGCTTAATACGCACACGGGAAAAAAAAAA [CACACA_site1376],7.2
19,TAAATAAAAAAAAATCGTACATATATTTTATATATG [XGTACX_site3293],6.82
20,TTTTCAAAAATATACACACACATAAATATCTGTATA [CACACA_site4586],6.99
